Laboratory results taken from PubChem BioAssay AID463173 (ICCB-Longwood Screening Facility, Harvard Medical School, 2010).
The campaign covered roughly 52,000 compounds. About 1,700 (3.3%) were called active. Rule as the data show it: active = survival mostly below about 52% (no sharp cut-off); inactive = mostly above about 56%. The list shows a part of the results.

Each compound was assayed on Wild type (assay: S. aureus survival, RN4220 and DeltatarO strains – OD600, teichoic acid synthesis inhibitors, primary screen (AID 463173)). Conditions: S. aureus RN4220 wild type/DeltatarO growth, OD600, 18 h, hits give low values, screened at 18.75 µg/mL (by protocol).

SMILES | survival
COc1ccc(CNC(=O)CN(c2ccc(OC)cc2)S(=O)(=O)c2c(C)[nH]c(=O)[nH]c2=O)cc1 | inactive: 85%
CCOc1ccc(NC(=O)c2c(NC(=O)c3ccccc3Br)sc3c2CCC(C)C3)cc1 (stereo not given) | inactive: 80%
COc1ccccc1OCCSc1nc(C)cc(C)n1 | inactive: 106%
Clc1ccc(NC2CCCCC2)nn1 | inactive: 110%
COc1ccc(OC)c(NC(=O)N(C)CCc2c(C)nn(C)c2C)c1 | inactive: 59%
CCC(=O)N1CCc2cc(Br)cc(S(=O)(=O)N(CC)Cc3ccccc3)c21 | inactive: 73%
CCOc1ccc(NC(=O)CC2C(=O)N(c3ccc(C)cc3)C(=O)N2Cc2ccc(OC)cc2)cc1 (stereo not given) | inactive: 75%
Cc1nc(-c2cccc(F)c2)sc1CCNC(=O)C(=O)Nc1ccc2c(c1)OCO2 | inactive: 138%
Cc1cccc(N2CCN(c3ncnc4onc(C)c34)CC2C)c1 (stereo not given) | inactive: 73%
CCc1cccc(C)c1NC(=O)c1cn2c3c(ccc(Cl)c3c1=O)OC(C)C2 (stereo not given) | inactive: 127%
Cc1ccc(-c2nc3ncccc3o2)cc1NC(=O)c1ccc(-c2cccc(Cl)c2C)o1 | inactive: 68%
Cc1cc(-c2nc3ncccc3o2)ccc1NC(=O)c1ccc(Cl)cc1 | inactive: 92%
O=C(CC12CC3CC(CC(C3)C1)C2)NCc1ccco1 | inactive: 117%
COC(=O)CSc1ccc2nnc(CCNS(=O)(=O)c3ccccc3)n2n1 | inactive: 109%
CCCCN(C)S(=O)(=O)c1cc(-c2cc(C)no2)ccc1C | inactive: 72%
CCOc1ccc(S(=O)(=O)NCC(c2ccc(N(C)C)cc2)N2CCc3ccccc32)cc1 (stereo not given) | inactive: 22%
COc1ccc(-c2cccc(NS(=O)(=O)c3cc(C)ccc3OC)c2)nn1 | inactive: 127%
CCc1cccc(C)c1NS(=O)(=O)c1ccc(-c2cc(C)no2)s1 | inactive: 78%
Cc1cccc(NC(=O)c2c(N)sc3c2CCC(C)C3)c1 (stereo not given) | inactive: 66%
COc1ccc(C(=O)NCC(c2ccco2)S(=O)(=O)c2cccs2)cc1 (stereo not given) | inactive: 73%
N#Cc1nc(/C=C/c2ccc(F)cc2)oc1NC1CCCCC1 | inactive: 88%
CS(=O)(=O)N1CCN(c2ccc(NC(=O)c3ccc4c(c3)OCO4)cc2)CC1 | inactive: 99%
Cc1ccccc1NC(=O)c1c(NC(=O)c2cccs2)sc2c1CCC(C)C2 (stereo not given) | inactive: 71%

SMILES | survival
O=C(Nc1ccc2nn(-c3ccc(Cl)cc3)nc2c1)c1cc2ccccc2o1 | inactive: 76%
Cc1ccccc1Nc1c(-c2ccc(N3CCOCC3)cc2)nc2ccc(Cl)cn12 | inactive: 124%
Cn1c(=O)n(C)c2cc(N3CCCCC3)c(NC(=O)c3c(F)cccc3F)cc21 | inactive: 82%
COc1ccc(N(C)C(=O)C2CCN(S(=O)(=O)c3cc(Br)cc4c3N(C(C)=O)CC4)CC2)cc1 | inactive: 95%
Cc1ccc(OCc2cc(=O)n3ccsc3n2)c(NC(=O)c2ccco2)c1 | inactive: 82%
COc1ccc(-c2nc3cc(NC(=O)c4cc5ccccc5o4)ccc3o2)cc1 | inactive: 80%
CCOC(=O)c1cc(-c2ccccc2)n(CCC(=O)NCCc2ccc(OC)c(OC)c2)c1C | inactive: 71%
Cc1ccn2c(Nc3ccccc3C)c(-c3ccccc3)nc2c1 | active: -3%
COc1ccc(S(=O)(=O)N2CCC(C(=O)NC3CC3)CC2)cc1Cl | inactive: 108%
CCn1ccc2cc(S(=O)(=O)N3CCC(C(=O)NCc4ccc(F)cc4)CC3)ccc21 | inactive: 80%
Cc1ccc(NCc2cccn2-c2nnc(N3CCC(C(=O)NCc4ccc(F)cc4)CC3)s2)cc1 | inactive: 101%
Cc1ccc(NC(=O)CSc2nnc(COc3ccc(Cl)cc3)o2)c(C)c1 | inactive: 91%
O=C(Nc1ccc2nc(SCC(=O)N3CCOCC3)sc2c1)c1ccccc1Cl | inactive: 82%
Cc1cccc(OCC(=O)Nc2ccccc2OCc2cc(=O)n3cc(C)ccc3n2)c1 | inactive: 87%
O=C(Cn1c(=O)n2nc(-c3cccc(F)c3)nc2c2ccccc21)NCc1ccc(Cl)cc1 | inactive: 66%
COc1cccc(NC(=O)Cn2c(=O)n(Cc3ccco3)c(=O)c3cc(OC)c(OC)cc32)c1 | inactive: 138%
CCc1ccc(NC(=O)CSc2ccccn2)cc1 | inactive: 102%
CN(C)c1ccc(C(=O)NCc2ccc3c(c2)CCN3C(=O)c2ccccc2)cc1 | inactive: 119%
CC(C)CCNC(=O)CSc1nc2ccccc2nc1Cc1ccc(Cl)cc1 | inactive: 71%
CSc1ccc(CNC(=O)Cn2ccc3cc(S(=O)(=O)N4CCCC4)ccc32)cc1 | inactive: 83%
COc1ccccc1CNC(=O)CS(=O)(=O)Cc1nc(-c2ccccc2C)oc1C | inactive: 75%
Cc1cc(C)cc(NC(=O)CCN2C(=O)c3ccccc3Sc3ncccc32)c1 | inactive: 87%
CC1CCN(c2nc(-c3ccc(Br)cc3)nc3ccccc23)CC1 | inactive: 105%

SMILES | survival
CN(C)c1ccc(CNC(=O)c2sc3ncccc3c2-n2cccc2)cc1 | inactive: 75%
CCN(C(=O)CC(C)C)c1nnc(-c2ccccc2C)s1 | inactive: 96%
Cc1ccc(-c2cc(C(F)(F)F)c(C#N)c(SCC(=O)Nc3ccccc3F)n2)cc1 | inactive: 73%
CCN(c1ncnc2c1cnn2-c1cccc(Cl)c1)C1CCCCC1 | inactive: 45%
CC1CCCCN1CCCNC(=O)Cn1ncc2c3ccccc3n(Cc3ccccc3F)c2c1=O (stereo not given) | inactive: 90%
COc1cc(Cl)c(NS(=O)(=O)c2ccc(-c3coc(C)n3)cc2)c(OC)c1 | inactive: 69%
COc1ccc(C2C(=O)N(C3CCCCC3)CC(=O)N2C2CCCCC2)cc1 (stereo not given) | inactive: 76%
COc1cccc(CNC(=O)CN2C(=O)CSc3ccc(S(=O)(=O)N4CCCC4)cc32)c1 | inactive: 94%
COCCn1c(C)cc(O)c(C(c2ccc(Cl)cc2)N2CCCCC2)c1=O (stereo not given) | inactive: 84%
Cc1cc(C)c(NC(=O)CN2C(=O)CCSc3ccc(S(=O)(=O)N4CCCC4)cc32)c(C)c1 | inactive: 82%
O=C(c1ccccc1)N1CCCCC1CCN1CCCCC1 (stereo not given) | inactive: 86%
O=C(Nc1ccc2nc(SCC(=O)N3CCOCC3)sc2c1)c1ccc(Cl)cc1 | inactive: 79%
CCN(Cc1ccccc1)C(=O)C(CC(C)C)NS(=O)(=O)c1ccc2c(c1)CCN2C(C)=O (stereo not given) | inactive: 74%
Cc1cccc(N2CCN(C(=O)c3nn(C)c4c3CS(=O)(=O)c3ccccc3-4)CC2C)c1 (stereo not given) | inactive: 82%
CN(C)c1ccc(Cl)nn1 | inactive: 119%
Cc1ccc(-n2c(=O)c3ccccc3n(CC(=O)Nc3cccc(C(F)(F)F)c3)c2=O)cc1 | inactive: 78%
N#C/C(=C\c1ccc(Cl)cc1)c1nc(-c2cc3c(ccc4ccccc43)oc2=O)cs1 | inactive: 69%
O=C(Cn1c(=O)n(-c2ccccc2)c(=O)c2sc3ccccc3c21)NC1CCCC1 | inactive: 138%
COCC(C)NCc1ccccc1C (stereo not given) | inactive: 100%
CCOC(=O)C1C(=O)N(C(=O)c2cncc(Br)c2)CC1c1ccccc1 (stereo not given) | inactive: 112%
CN(C1CCCCC1)S(=O)(=O)c1ccc2c(c1)c(=O)c(C(=O)NCc1ccc(Cl)cc1)cn2C | inactive: 84%
O=C(CN1C(=O)CC(c2ccc(F)cc2)=Nc2ccccc21)NCc1ccccc1Cl | inactive: 71%
Cc1ccc(C)c(Nc2nn3c(=O)c4ccc(C(=O)NCc5cccs5)cc4nc3s2)c1 | inactive: 65%

SMILES | survival
CC(NC(=O)c1cc2sccc2n1Cc1ccc(F)cc1)c1ccccc1 (stereo not given) | inactive: 88%
O=C(Cn1c(C(=O)N2CCN(C3CCCCC3)CC2)cc2sccc21)c1ccccc1 | inactive: 116%
COc1ccc(-c2nn(-c3ccc(F)cc3F)c3c2cnc2ccc(F)cc23)cc1 | inactive: 71%
CC(=O)N1CCCc2cc(S(=O)(=O)NCc3ccc(OC(C)C)cc3)ccc21 | inactive: 77%
CCc1cccc(C)c1NS(=O)(=O)c1ccc(-n2cccn2)cc1 | inactive: 128%
Cn1c(=O)oc2cc(S(=O)(=O)Nc3ccccc3)ccc21 | inactive: 78%
CCOc1ccc(-c2nonc2NC(=O)c2oc3cc(Br)ccc3c2C)cc1 | inactive: 100%
N#Cc1ccccc1NC(=O)C(=O)NCC(c1cccnc1)N1CCN(c2ccccc2)CC1 (stereo not given) | inactive: 99%
Cc1cccc(C(=O)Nc2cccc(C(=O)OCc3cc(=O)n4nc(C5CC5)sc4n3)c2)c1 | inactive: 59%
CCN1CCN(C(=O)c2ccc3c(c2)N(Cc2cc(C)ccc2C)C(=O)c2ccccc2S3(=O)=O)CC1 | inactive: 81%
Cc1ccc(OCC(=O)Nc2ccc(-c3nc4ccc(C)cc4o3)cc2)cc1 | inactive: 66%
CCOc1ccc(C(=O)Nc2ccc3nc(SCC(=O)N4CCOCC4)sc3c2)cc1 | inactive: 105%
CCCSCCCNC(=O)CN1C(=O)COc2ccc(S(=O)(=O)N3CCCCCC3)cc21 | inactive: 79%
COc1cc(SC)ccc1C(=O)NCC#N | inactive: 92%
CCOc1ccccc1Nc1ccc2cc(S(=O)(=O)N3CCCCC3)ccc2n1 | inactive: 76%
CCOC(=O)c1c(C)oc2nc(C)nc(NCCc3ccc(S(N)(=O)=O)cc3)c12 | inactive: 73%
O=C(NCCc1ccccc1)c1cnc2sc(N3CCOCC3)nn2c1=O | inactive: 143%
CCOC(=O)c1[nH]cnc1C(=O)N1CCOCC1 | inactive: 121%
CCCOc1ccc(CNC(=O)C2CCN(c3nn4c(=O)cc(C)nc4s3)CC2)cc1 | inactive: 124%
COc1ccc(CCC(=O)NCc2ccc3c(c2)CCN3C(=O)c2cccc(C)c2)cc1 | inactive: 67%
Cc1cc(NC(=O)CN(c2cccc(C)c2C)S(=O)(=O)c2ccccc2)ccc1Br | inactive: 91%
